# Measured values: paper PMC12040169 (PLOS Biology, 2025)
# This is one part of the list.
# System: T1, C. trachomatis L2/434/Bu expressing GFP (CTL2-GFP)
# T1 construct: L2/434/Bu GFP intracellular growth in HeLa cells
# Parameters: species or system HeLa; C. trachomatis total inclusion area by high-content imaging, normalised to DMSO
# Conditions: total inclusion area; 28.5 h, 10 µM; inhibitor
# How it was run: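 High-content images of fixed, Hoechst-stained infected cultures supply inclusion area and count (growth) plus nuclei number (viability), complementing bulk GFP/resorufin fluorescence. MIC determination is unchanged from the primary assay.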
row,Compound,% of control remaining
1,FC(F)(F)Oc1ccc(-c2c[nH]c([C@@H]3COCCN3Cc3c[nH]cn3)n2)cc1 [CBK289303],75.7121
2,CCOC(=O)CN1C(=O)S/C(=C/c2cc(Cl)c(OCC(=O)O)c(Br)c2)C1=O [CBK264614],125.295
3,NC(=O)CN1CC2(CCN(CCS(=O)(=O)c3ccccc3)CC2)c2ccccc21 [CBK126786],93.715
4,CN1CCN(C(=O)Cc2csc(-c3ccc(Cl)cc3)n2)CC1 [CBK107301],86.4287
5,COc1ccc(C(=O)N2CCC3(CCN(CCN4CCCCC4)C3)C2)cc1OC (stereo not shown) [CBK137113T],113.299
6,CC(C)(C)c1ccc(C(=O)Nc2cnn(CCCC(=O)O)c2)cc1 [CBK269929],110.351
7,COc1cc(C)c(Nc2cccc(-c3ccc(O)cc3)n2)cc1OC [CBK037608],81.3844
8,COCCNS(=O)(=O)c1ccc(Br)c(C(=O)N(C)Cc2cnn(C)c2)c1 [CBK304795],53.3427
9,N#Cc1cn(Cc2ccco2)c(=O)[nH]c1=O [CBK010407],99.8401
10,COC(=O)C1CCN(C(=O)c2ccc(Oc3cccc(Br)c3)nc2)CC1 [CBK304235],37.4699
11,CN1C[C@@H](NC(=O)NCc2ccccc2)C[C@H]1c1nc(-c2cncnc2)no1 [CBK288878],110.687
12,O=C1N=C(NC2C3CC4CC(C3)CC2C4)OC12CCCC2 (stereo not shown) [CBK113576],86.8022
13,NC(=O)c1cccc(-n2ncc(-c3cccnc3)n2)c1 [CBK112806],90.8708
14,CC(=O)NC(c1ccccn1)C1CCCN(C(=O)C(C)(C)C)C1 (stereo not shown) [CBK285101],85.3919
15,c1ccc(-c2oc3ncn4nc(COc5cccc6ccccc56)nc4c3c2-c2ccccc2)cc1 [CBK262898],121.017
16,c1ccc(-c2cc3nccc(-c4ccccc4)n3n2)cc1 [CBK287871],97.2647
17,O=C(OCCCc1cccnc1)c1cc(=O)[nH]c2ccccc12 [CBK295631],131.409
18,c1cc(Sc2nccnc2N2CCCC2)ccn1 [CBK093807],91.2274
19,CN(Cc1ccc(-c2ccc(S(C)(=O)=O)cc2)nc1)C1CCN(C(=O)CC(F)(F)F)CC1 [CBK164098T],80.6668
20,O=c1[nH]c2ncc(-c3cccc4ccccc34)nc2n1Cc1cccnc1 [CBK064274],83.0993
21,O=C(c1ccco1)N1CCN(c2cncc(-c3cccs3)n2)CC1 [CBK065518],123.145
22,CC(C)c1cc(C(=O)NC(c2ccccc2)c2ccnn2C)n(C)n1 (stereo not shown) [CBK282535],116.215
23,O=C(O)CCc1ccc(-c2cccs2)n1CCc1ccccc1 [CBK265983],75.3637
24,Cc1nc2ccc(C(=O)N(C)CCN(C)C)cn2c1N(C)C(=O)c1cccs1 [CBK146528],99.6016
25,CCN1CCN(C(=O)CCn2c(C(F)F)cc3cccnc32)CC1 [CBK285026],88.441
26,Cc1noc2nc(C3CCN(C(=O)C4CC4C)CC3)cc(C(F)F)c12 (stereo not shown) [CBK285307],74.8059
27,CC1CCCCN1C(=O)Cn1ncn2c(cc3ccsc32)c1=O (stereo not shown) [CBK284201],60.4182

row,Compound,% of control remaining
1,CC1CCc2nn(CCNC(=O)Cc3ccccc3F)c(=O)cc2C1 (stereo not shown) [CBK284482],109.871
2,O=[N+]([O-])c1ccc(N2CCN(S(=O)(=O)c3ccc4ccccc4c3)CC2)c(C(F)(F)F)c1 [CBK264827],95.0081
3,Cc1cc(C)n(-c2ccc(N3CCC4(CC3)OCCO4)nn2)n1 [CBK305255],24.3445
4,COc1cccc(C(=O)Nc2cnn(CCCC(=O)O)c2)c1 [CBK269879],80.332
5,COC(=O)c1ccc(N2CCOCC2)c(NC(=O)COc2ccccc2)c1 [CBK270222],111.946
6,O=[N+]([O-])c1ccc(CN2CCC(Oc3nccnc3OCC3COc4ccccc4O3)CC2)cc1 (stereo not shown) [CBK082984T],79.0657
7,CCNC(=O)c1cnc(-c2ccc(F)cc2)c(-c2ccncc2)c1 [CBK037477],146.266
8,CC(SCc1ccccc1)C(=O)NC(C)c1ccccc1 (stereo not shown) [CBK263772],87.8701
9,O=C(Nc1ccc(Cl)c(C(=O)O)c1)c1cccc(-n2cnnc2)c1 [CBK270016],101.371
10,CN1CCN(C(=O)c2[nH]c3ccccc3c2NS(=O)(=O)c2cc(F)c(Br)cc2F)CC1 [CBK050051],98.4392
11,Cc1ccc(NC(=O)CSc2nc3[nH]ncc3c(=O)[nH]2)cc1 [CBK287675],78.1202
12,O=C(COc1ccc(-c2ccccc2)cc1)N1CCN(S(=O)(=O)c2ccc([N+](=O)[O-])cc2)CC1 [CBK264297],123.391
13,O=C(O)CC1CCC2(CC1)Cc1ccccc1C2 [CBK012397],104.806
14,Cc1ccccc1-c1noc(CSc2nnc(-c3ccncc3)n2-c2ccc(F)cc2)n1 [CBK269089],94.1764
15,Cc1ccc(C(C)C)c(OC(=O)c2ccc3nccnc3c2)c1 [CBK269114],37.2997
16,O=C1CCC(=O)N1CCn1c(=O)n(C(=O)CCCOc2ccc(Cl)cc2)c2ccccc21 [CBK106496],93.6064
17,N#Cc1cccc(NC(=O)NC[C@H]2C[C@@H]3CC[N@]2C[C@@H]3CN2CCCCC2)c1 [CBK288765],110.837
18,C[C@H](NC1=NC(=O)[C@@](C)(C(C)(C)O)S1)c1ccc(F)cc1 [CBK138436],82.108
19,Cc1ccc(C2(O)CCN(C(=O)CC3CCN(C(=O)CC4CCCCC4)CC3)C2)cc1 (stereo not shown) [CBK286132],140.982
20,CC12CN3CC(C)(CN(C1)C3c1ccc(O)cc1)C2O (stereo not shown) [CBK262663],100.253
21,C=CCNc1nc(N)c(/C(N)=N/C#N)s1 [CBK019028],80.4708
22,CCOc1ccc(-c2ccnc(N3C[C@@H](C)O[C@@H](C)C3)n2)cc1C(=O)O [CBK306584],65.0008
23,Cc1ccc([N+](=O)[O-])cc1NC(=O)C1CCCN1S(=O)(=O)c1ccc(Cl)cc1 (stereo not shown) [CBK033769],89.6108
24,CCOc1ccc(OC(=O)C2CCN(C(=O)CC(C)C)CC2)cc1 [CBK154228],80.2739
25,CCN(CC(=O)NCc1cccnc1)S(=O)(=O)c1ccc2ccccc2c1 [CBK300514],105.735
26,CCCN1CCN(c2ncnc3scc(C4COc5ccccc5O4)c23)CC1 (stereo not shown) [CBK266590],106.8
27,CCNc1nc(=S)[nH]c2sc3c(c12)CCC(C)C3 (stereo not shown) [CBK086242],45.5939

row,Compound,% of control remaining
1,CCn1c(C)nc2cc(S(N)(=O)=O)ccc21 [CBK260950],85.0469
2,O=C1Nc2c(cnn2-c2ccc(Cl)cc2)C2=NCCN12 [CBK284341],64.3444
3,CN(c1cncc(Cl)n1)C1CCN(Cc2ccccc2)CC1 [CBK012767F],53.0342
4,COc1ccc(CCNC(=O)N(C)C2CCN(C)C2)cc1OC (stereo not shown) [CBK156007],88.2717
5,O=C(NC(c1ccccc1)c1ccccn1)C1CCN(C(=O)Oc2ccccc2)CC1 (stereo not shown) [CBK060105],94.8425
6,CC(C)(CN)CN(Cc1ccccc1Br)C(=O)NC(c1ccccc1)c1ccccc1 [CBK002488C],22.0175
7,O=C(NCCNc1ccc(Cl)cc1[N+](=O)[O-])c1c(F)cccc1F [CBK269643],87.3959
8,CSc1ncc(Cl)c(C(=O)Nc2sc3c(c2C(=O)NCc2ccco2)CCC3)n1 [CBK268991],95.0329
9,Cc1n[nH]c(C)c1CNC(=O)c1[nH]c2c(Cl)cccc2c1C [CBK282534],117.52
10,Cc1cc2c(s1)c1cnn(CCN3CCCC3)c(=O)c1n2C [CBK284180],100.562
11,O=C(O)CCC(=O)N1CCN(c2ncccn2)CC1 [CBK057422],54.979
12,COc1ccc(C(C)=O)cc1Cc1c(O)nc(SC)nc1O [CBK262699],107.193
13,CCc1nc2c(OCc3ccccc3)cccn2c1N(C)C(=O)c1ccncc1 [CBK147876],97.5986
14,CC1(C)CC(CN)(c2ccccc2)CCO1 (stereo not shown) [CBK025559C],109.55
15,O=C(CSc1nnc(Cc2cccc3ccccc23)n1-c1ccccc1)N1CCc2ccccc21 [CBK266697],108.659
16,CCN(CC)C(=O)c1ccc(NS(=O)(=O)c2cccc(Cl)c2C)cc1 [CBK034393],95.5794
17,CC(=O)Nc1ccc(-c2cccc(COC3CCN(C(=O)Cc4cc(F)cc(F)c4F)CC3)c2)cc1 [CBK149489],84.9768
18,COc1ccc(Cl)cc1N1CCN(CCN2CCCCC2)CC1 [CBK126445],101.204
19,Cc1c(C#N)c(=O)ncn1Cc1ccncc1 [CBK021603],100.31
20,CCn1c(CN[C@@H]2CCC[C@H]2Cc2cc(C)no2)cnc1SC [CBK282965],119.428
21,OC1(c2cccnc2F)CCN(Cc2cc(F)ccc2F)CC1 [CBK284371],79.9527
22,O=C(c1cn2ccccc2n1)N1CCCN(Cc2cscn2)CC1 [CBK305352],100.108
23,CCCc1ccc(C(=O)N2CCC(C(=O)c3cccnc3)CC2)o1 [CBK285482],81.0937
24,COc1cc2c(cc1OC)C1(CCN(C(=O)Nc3ccc(F)cc3F)CC1)NC(=O)C2 [CBK047264],90.7737
25,COc1ccc(OC(C)C(=O)Nc2cc(OC)c(Cl)cc2OC)cc1 (stereo not shown) [CBK263627],75.9234
